{"source": "PubChem BioAssay AID463173", "about": "(ICCB-Longwood Screening Facility, Harvard Medical School, 2010)", "note": "The whole screen tested about 52,000 compounds, of which about 4,300 (8.3%) were called active. No stated cut-off is given here; in the data, active means survival mostly below about 52% (no sharp cut-off); inactive means mostly above about 56%. The list shows a part of the results."}
{"tested_on": "DeltatarO mutant", "test": "growth inhibition of S. aureus wild type versus tarO mutant, primary screen, teichoic acid synthesis inhibitors, RN4220, OD600 (AID 463173)", "settings": "OD600, 18 h, hits give low values, screened at 18.75 µg/mL (by protocol)"}
{"smiles": "Cc1ccc(-c2nc3cc(Cl)ccc3o2)cc1NC(=O)c1cc2ccccc2o1", "survival": "active: 43%"}
{"smiles": "Cc1c(C(=O)N(C)C)sc2c1c(=O)n(-c1ccccc1C(F)(F)F)c(=O)n2Cc1ccccc1C#N", "survival": "inactive: 93%"}
{"smiles": "COc1ccc(C(=O)NCc2ccc3c(c2)CCN3C(C)=O)cc1OC", "survival": "inactive: 83%"}
{"smiles": "Cc1oc(-c2ccc(C(=O)NCCCOC(C)C)cc2)nc1CS(=O)(=O)c1ccccc1", "survival": "active: -4%"}
{"smiles": "CCn1ccc2cc(S(=O)(=O)N3CCCN(C(=O)Nc4ccc(C)cc4Cl)CC3)ccc21", "survival": "inactive: 75%"}
{"smiles": "COc1cc2c(cc1OC)n(CC(=O)Nc1ccc(C)cc1C)c(=O)n1nc(-c3ccccc3)nc21", "survival": "inactive: 82%"}
{"smiles": "O=C(NN1C(=O)C2C3C=CC(C3)C2C1=O)c1ccccc1", "note": "(stereo not given)", "survival": "inactive: 80%"}
{"smiles": "Cc1cc(Nc2ccccc2F)n2nc(Cc3ccc(Cl)cc3)nc2n1", "survival": "active: 44%"}
{"smiles": "COc1cccc(CNC(=O)CSc2cc(C)[nH]c(=O)n2)c1", "survival": "inactive: 94%"}
{"smiles": "Cc1c(Cl)cccc1NC(=O)CSc1nc(=O)n(Cc2ccncc2)c2c1CCC2", "survival": "inactive: 107%"}
{"smiles": "CCOc1ccc2c(c1)c(=O)c(S(=O)(=O)c1ccc(CC)cc1)cn2CC", "survival": "inactive: 70%"}
{"smiles": "COc1ccc(-c2nnc(SCC(=O)N3CCCCC3)o2)cc1", "survival": "inactive: 81%"}
{"smiles": "CCOc1ccccc1-c1noc(CSc2nnc(-c3ccncc3)n2-c2ccc(F)cc2)n1", "survival": "inactive: 57%"}
{"smiles": "Cc1c(C(=O)Nc2ccccc2Br)oc2ccccc12", "survival": "inactive: 70%"}
{"smiles": "CC1CCN(C(=O)CN2c3ccc(Br)cc3-c3ccccc3S2(=O)=O)CC1", "survival": "inactive: 101%"}
{"smiles": "O=C(COc1ccccc1)Nc1c(C(=O)N2CCN(c3ccc(F)cc3)CC2)oc2ccccc12", "survival": "inactive: 102%"}
{"smiles": "CC(C)c1ccc(Nc2cc(C(=O)NCCCN(C)Cc3ccccc3)c3ccccc3n2)cc1", "survival": "inactive: 134%"}
{"smiles": "Cc1cccc(NC(=O)CSc2ncc3c(n2)-c2cc(Cl)ccc2N(C)S3(=O)=O)c1C", "survival": "inactive: 107%"}
{"smiles": "CC(=O)N1CCN(C(=O)C(=O)Nc2c3c(nn2-c2ccc(Cl)cc2)CSC3)CC1", "survival": "active: -1%"}
{"smiles": "COC(=O)c1ccc(C2c3c(-c4ccc(Br)cc4)n[nH]c3C(=O)N2c2ccc(Cl)cc2)cc1", "note": "(stereo not given)", "survival": "inactive: 93%"}
{"smiles": "COc1cccc(-n2c(-c3ccco3)nc3c(cnn3-c3ccccc3C)c2=O)c1", "survival": "inactive: 85%"}
{"smiles": "O=C(CCCOc1ccccc1)Nc1nccs1", "survival": "inactive: 85%"}
{"smiles": "CN1CCN(Cc2nnnn2CC2CCCO2)CC1", "note": "(stereo not given)", "survival": "inactive: 95%"}
{"smiles": "COc1ccc(-c2nc(Cn3c(SCc4cccc(F)c4)nc4cccnc43)c(C)o2)cc1", "survival": "inactive: 76%"}
{"smiles": "Cn1cc(S(=O)(=O)N2CCCCCC2)cc1C(=O)Nc1ccccc1F", "survival": "inactive: 88%"}
